The whole screen tested about 39,000 compounds, of which about 220 (0.56%) showed activity. This is one part of the list.
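Note: static incubation at 37 °C against the wild-type strain, values averaged over two biological replicates.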

The subject of this assay is Escherichia coli K-12 BW25113. Nature of the assay: relative growth (OD600 normalised to plate interquartile mean) (fraction); higher = less growth inhibition, active = 0.2 or less. Conditions: 50 µM; LB; incubation time: overnight (16-24 h).
`C[C@@H]1CN([C@H](C)CO)C(=O)c2cc(NC(=O)Nc3cccc4ccccc34)ccc2O[C@@H](C)CCCCO[C@H]1CN(C)Cc1ccc2c(c1)OCO2`: the relative growth is inactive: 0.992. Regarding `C[C@H](CO)N1C[C@H](C)[C@H](CN(C)Cc2ccc(Oc3ccccc3)cc2)Oc2ccc(NC(=O)NC3CCCCC3)cc2C1=O`, the relative growth is inactive: 0.972. Turning to `C[C@H]1CN([C@@H](C)CO)C(=O)c2cccc(NC(=O)NC3CCCCC3)c2O[C@H]1CN(C)Cc1ccc(Cl)c(Cl)c1`, the relative growth is inactive: 0.953. For `O=C(O)c1ccncc1`, the relative growth was inactive: 0.986. For `C[C@@H]1CN([C@H](C)CO)S(=O)(=O)c2ccc(-c3cccnc3)cc2O[C@H]1CN(C)C(=O)NC1CCCCC1`, the relative growth was inactive: 0.997.

Consider `Cc1noc(C)c1S(=O)(=O)N(C)C[C@@H]1Oc2ccc(NC(=O)Nc3ccccc3)cc2CC(=O)N([C@H](C)CO)C[C@@H]1C`, for which the relative growth is inactive: 1. The value for `O=C(C[C@@H]1C[C@H]2c3cc(NS(=O)(=O)c4ccc(F)cc4)ccc3O[C@H]2[C@H](CO)O1)NCc1ccncc1` was inactive: 0.999; that for `C[C@H]1CN([C@@H](C)CO)C(=O)c2cc(NC(=O)CCCN(C)C)ccc2O[C@@H]1CN(C)C(=O)Nc1ccccc1` was inactive: 1.01.

With `COc1ccc(NC(=O)Nc2ccc3c(c2)C(=O)N([C@H](C)CO)C[C@@H](C)[C@@H](CN(C)Cc2ccncc2)OCCCC[C@@H](C)O3)cc1`, the relative growth was inactive: 1.02.

Consider `COCCOC(=O)N1C(=O)[C@@]2(c3ccccc31)[C@H](C(=O)N1CCc3cc(OC)c(OC)cc3C1)[C@H]1C(=O)O[C@H](c3ccccc3)[C@H](c3ccccc3)N1[C@@H]2c1ccc(O)cc1`, for which the relative growth is inactive: 1.02. With `C[C@H]1CN([C@@H](C)CO)C(=O)Cc2cc(NC(=O)CCC(F)(F)F)ccc2O[C@H]1CN(C)Cc1ccc(Oc2ccccc2)cc1`, the relative growth was inactive: 0.932. Turning to `CC1C=CC=CC=CC=CC=CC=CC=CC(OC2OC(C)C(O)C(N)C2O)CC2OC(O)(CC(O)CC(O)C(O)CCC(O)CC(O)CC(=O)OC(C)C(C)C1O)CC(O)C2C(=O)O` (stereo unspecified), the relative growth is inactive: 1.02. As for `C[C@@H]1CCCCO[C@H](CN(C)C(=O)Nc2ccc(F)cc2)[C@@H](C)CN([C@@H](C)CO)C(=O)c2cc(NC(=O)c3ccccc3)ccc2O1`, the relative growth is inactive: 1.01.

Consider `Cc1noc(C)c1NC(=O)N(C)C[C@@H]1OCCCC[C@H](C)Oc2ccc(NC(=O)Nc3cccc4ccccc34)cc2C(=O)N([C@H](C)CO)C[C@@H]1C`, for which the relative growth is inactive: 1.03.

Turning to `C[C@H](CO)N1C[C@H](C)[C@H](CN(C)C(=O)Nc2ccc(C(F)(F)F)cc2)Oc2ccc(NC(=O)Nc3ccccc3)cc2C1=O`, the relative growth was inactive: 1.02. For `Cc1noc(C)c1NC(=O)Nc1ccc2c(c1)C(=O)N([C@H](C)CO)C[C@@H](C)[C@@H](CN(C)C(=O)Nc1c(C)noc1C)OCCCC[C@@H](C)O2`, the relative growth was inactive: 1.02.

In the case of `C[C@@H]1CN([C@@H](C)CO)C(=O)c2cccc(NS(=O)(=O)c3ccc(Cl)cc3)c2O[C@H]1CN(C)C(=O)Nc1cccc2ccccc12`, the relative growth was inactive: 0.967. `C[C@@H]1CCCCO[C@H](CN(C)C(=O)c2ccccc2)[C@@H](C)CN([C@@H](C)CO)C(=O)c2cc(NC(=O)c3ccccc3)ccc2O1`: the relative growth is inactive: 0.948. Take `CC(C)N1C[C@H](C)[C@@H](CN(C)Cc2cccc(Cl)c2)Oc2c(NC(=O)c3ccncc3)cccc2C1=O`: the relative growth was inactive: 1.04. As to `C[C@@H]1CCCCO[C@@H](CN(C)C(=O)c2ccncc2)[C@@H](C)CN([C@H](C)CO)C(=O)c2cc(NC(=O)C3CCCCC3)ccc2O1`, the relative growth is inactive: 1.02. As to `CCOC(=O)c1c[nH][nH]c1=O`, the relative growth is inactive: 1. The value for `C[C@@H]1CN([C@@H](C)CO)C(=O)c2cc(NC(=O)CCN3CCOCC3)ccc2O[C@H]1CN(C)S(C)(=O)=O` was inactive: 0.997; that for `COC(=O)CCCCCCC(=O)Nc1ccc(NC(=O)CCCC[P+](c2ccccc2)(c2ccccc2)c2ccccc2)cc1` was inactive: 0.979. As to `C[C@@H]1CN([C@@H](C)CO)C(=O)c2cc(NC(=O)CCC(F)(F)F)ccc2O[C@@H](C)CCCCO[C@H]1CN(C)Cc1ccccc1`, the relative growth is inactive: 0.983. As for `CCOC(=O)c1c(C)cc(OC)cc1O`, the relative growth is inactive: 0.917. For `Cc1noc(C)c1NC(=O)N(C)C[C@@H]1Oc2c(NC(=O)C3CCOCC3)cccc2C(=O)N([C@H](C)CO)C[C@@H]1C`, the relative growth is inactive: 0.998.

As to `Cc1cccc(S(=O)(=O)N2C[C@H](O)COC[C@@H]3O[C@@H](CC(=O)N4CCN(C)CC4)CC[C@H]32)c1`, the relative growth was inactive: 0.979. As to `C[C@H]1CN([C@@H](C)CO)C(=O)Cc2cc(NC(=O)Cn3cnnn3)ccc2O[C@@H]1CN(C)Cc1ccc(Oc2ccccc2)cc1`, the relative growth was inactive: 0.955. The figure for `C[C@@H]1CN([C@@H](C)CO)C(=O)c2cc(NC(=O)Nc3ccccc3)ccc2O[C@@H](C)CCCCO[C@@H]1CN(C)C(=O)C1CCCCC1` is inactive: 0.972. As to `COc1cccc(NC(=O)N(C)C[C@H]2Oc3cc(C#Cc4ccncc4)ccc3S(=O)(=O)N([C@H](C)CO)C[C@H]2C)c1`, the relative growth is inactive: 0.985. For `C[C@@H]1CCCCO[C@@H](CN(C)S(=O)(=O)c2ccc(Cl)cc2)[C@@H](C)CN([C@@H](C)CO)C(=O)c2cc(NS(=O)(=O)c3ccccc3)ccc2O1`, the relative growth is inactive: 1.03.

As to `Cc1noc(C)c1S(=O)(=O)N(C)C[C@H]1OCCCC[C@@H](C)Oc2ccc(NC(=O)Nc3ccc(F)cc3)cc2C(=O)N([C@H](C)CO)C[C@@H]1C`, the relative growth was inactive: 1. The figure for `COc1ccc(S(=O)(=O)N(C)C[C@H]2OCCCC[C@@H](C)Oc3ccc(NC(=O)Nc4ccc(C(F)(F)F)cc4)cc3C(=O)N([C@H](C)CO)C[C@H]2C)cc1` is inactive: 1.04; for `C[C@@H]1CCCCO[C@H](CN(C)Cc2ccc(C(=O)O)cc2)[C@@H](C)CN([C@@H](C)CO)C(=O)c2cc(NS(=O)(=O)c3cccs3)ccc2O1` it is inactive: 1.01; for `COc1ccc(S(=O)(=O)N(C)C[C@@H]2Oc3cc(C#CC4CCCC4)ccc3S(=O)(=O)N([C@@H](C)CO)C[C@@H]2C)cc1` it is inactive: 1.02. Turning to `C[C@H](CO)N1C[C@H](C)[C@@H](CN(C)C(=O)Nc2cccc3ccccc23)Oc2ccc(NS(=O)(=O)c3cccs3)cc2CC1=O`, the relative growth was inactive: 1.02.

The values above are taken from the supplement of paper PMC9446081.
